Measurements as given in PMC4336329 (PLoS ONE, 2015).
Hit rate of the full screen: of about 310,000 compounds, about 14,000 (4.5%) showed an effect of 50% or more. Effects have a minus sign here. Some of the results follow.

Biological target: human ether-à-go-go-related gene (hERG) potassium channel (human, UniProt Q12809)
Experiment: primary screen, population patch clamp on CHO cells stably expressing hERG
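Note: peak tail current of the secondary pulse compared with the same well before compound.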

Sequence of human ether-à-go-go-related gene (hERG) potassium channel (Q12809 whole entry, looked up): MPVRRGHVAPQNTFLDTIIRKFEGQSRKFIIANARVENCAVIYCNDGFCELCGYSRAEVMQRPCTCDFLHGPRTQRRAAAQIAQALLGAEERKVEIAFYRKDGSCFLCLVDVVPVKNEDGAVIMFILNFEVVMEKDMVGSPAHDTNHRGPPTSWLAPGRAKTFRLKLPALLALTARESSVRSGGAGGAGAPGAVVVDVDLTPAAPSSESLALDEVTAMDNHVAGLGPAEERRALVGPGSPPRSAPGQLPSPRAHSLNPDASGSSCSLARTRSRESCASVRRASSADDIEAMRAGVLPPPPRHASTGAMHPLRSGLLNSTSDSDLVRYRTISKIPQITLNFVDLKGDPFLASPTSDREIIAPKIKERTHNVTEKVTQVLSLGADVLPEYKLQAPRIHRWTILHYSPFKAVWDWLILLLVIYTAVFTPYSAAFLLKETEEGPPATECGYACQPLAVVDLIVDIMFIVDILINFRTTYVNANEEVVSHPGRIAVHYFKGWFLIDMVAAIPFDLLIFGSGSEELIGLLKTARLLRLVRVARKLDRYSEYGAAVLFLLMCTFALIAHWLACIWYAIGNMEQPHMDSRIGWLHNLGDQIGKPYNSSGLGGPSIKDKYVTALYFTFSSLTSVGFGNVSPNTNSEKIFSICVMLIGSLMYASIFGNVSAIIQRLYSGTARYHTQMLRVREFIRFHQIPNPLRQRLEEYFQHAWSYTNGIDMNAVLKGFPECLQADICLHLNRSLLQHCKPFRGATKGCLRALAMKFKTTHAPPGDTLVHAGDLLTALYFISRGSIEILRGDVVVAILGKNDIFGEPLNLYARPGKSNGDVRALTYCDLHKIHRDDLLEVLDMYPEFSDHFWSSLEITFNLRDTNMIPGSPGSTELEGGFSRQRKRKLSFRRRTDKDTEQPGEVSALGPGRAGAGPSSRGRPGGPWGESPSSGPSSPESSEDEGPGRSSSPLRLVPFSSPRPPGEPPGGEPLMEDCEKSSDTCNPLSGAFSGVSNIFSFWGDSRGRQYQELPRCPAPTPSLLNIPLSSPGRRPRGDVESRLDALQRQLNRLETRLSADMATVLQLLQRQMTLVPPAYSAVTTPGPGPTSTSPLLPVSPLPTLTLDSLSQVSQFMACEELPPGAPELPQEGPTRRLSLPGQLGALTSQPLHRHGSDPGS

| Compound | hERG current change (%, negative = inhibition) at 10uM [%] |
| --- | --- |
| COc1cccc(N=C(N)N)c1.Cl | 12.6 |
| COc1ccc(CN(C(=O)CN2C(=O)c3ccccc3S2(=O)=O)C(C(=O)NCC2CCCO2)c2ccco2)cc1 (centres unmarked) | -4.57 |
| Cc1nnsc1-c1c(C(=O)N2CCOCC2)c(C)nn1-c1ccc(Cl)cc1 | 1.32 |
| S=c1nc(NCc2cccc(Cl)c2)c2ccccc2[nH]1 | 11.2 |
| CC1CN(C(=O)CSc2nnc3c(Cl)cc(Cl)cn23)CC(C)O1 (centres unmarked) | 2.55 |
| Cc1ccc(N2CC(C(=O)NC3CCSC3=O)CC2=O)cc1 (centres unmarked) | 18.7 |
| Cc1cc(C)n(CC(=O)Nc2ccccc2)n1 | 8.25 |
| Cc1nc2nc[nH]n2c(=O)c1CCOC(=O)c1c(F)cccc1F | 11.4 |
| N#Cc1ccc(Cn2cc(C(=O)c3ccco3)c3ccccc32)cc1 | -76.7 |
| CCN(CC)c1ccc(/C=N/N=C(c2ccccc2)c2ccccc2)c(O)c1 | -7.56 |
| Cc1ccc(-c2nc3ccc(NS(=O)(=O)c4ccccc4)cc3[nH]2)o1 | -47.3 |
| c1ccc(CN(Cc2ccco2)C(c2ccncc2)c2nnnn2C2CCCC2)cc1 (centres unmarked) | -14.1 |
| CCCOc1ccc(-c2cc(C(F)(F)F)c(C#N)c(SCC(=O)O)n2)cc1 | 26 |
| O=C(NCC1CCCO1)C1CCCN1C(=O)NC1CCCCC1 (centres unmarked) | 11.9 |
| CSCCC(NC(=O)c1cccc(S(=O)(=O)N2CCOCC2)c1)C(=O)Nc1cccc(C)c1 (centres unmarked) | 14.1 |
| COC(=O)NNS(=O)(=O)c1ccc(C)cc1 | 28.5 |
| O=C1Nc2ccc(Br)cc2C(c2ccccc2)=NC1O (centres unmarked) | 13.1 |
| CC1(c2nnc(-c3ccncc3)o2)CC(c2c(Cl)cccc2Cl)=NO1 (centres unmarked) | -69.8 |
| CCOc1ccc(-n2c(C)cc(/C=N/Nc3nc(C)cc(=O)[nH]3)c2C)cc1 | 30.2 |
| CCn1c(SCC(=O)N(C)C)nc2cc(S(=O)(=O)N3CCOCC3)ccc21 | -1.91 |
| O=C(c1ccccc1)c1ccc2cc(O)ccc2c1 | -8.81 |
| CCN1CCN(c2nn3c(=O)c4ccccc4nc3c3ccccc23)CC1 | -72.7 |
| COc1ccc(CC(=O)OC(C)C(=O)NCc2ccc3c(c2)OCO3)cc1OC (centres unmarked) | -6.66 |

| Compound | hERG current change (%, negative = inhibition) at 10uM [%] |
| --- | --- |
| COC(=O)Cn1c(C)nc2c(sc3nc(C)cc(C)c32)c1=O | -8.44 |
| CCCc1nnc(SCC(=O)N2CCCC2)n1CC1CCCO1 (centres unmarked) | -1.61 |
| CCC/C(O)=C1\C(=O)CCCC1=NC(C)C(=O)O (centres unmarked) | 2.15 |
| CCC(c1nnnn1Cc1ccc(OC)cc1)N1CCN(C(=O)c2ccco2)CC1.Cl (centres unmarked) | -55.5 |
| O=C(NCCNCc1ccc(F)cc1)c1ccco1.O=C(O)C(=O)O | 9.99 |
| CN1CCc2[nH]c3ccc(C(=O)NN)cc3c2C1 | 5.22 |
| COC(=O)C1=C(C)N(C)C(C)=C(C(=O)OC)C1c1ccsc1 | 3.35 |
| Cc1cc(C)c(C)c(Cn2c(CO)nc3ccccc32)c1C | -4.5 |
| CCOC(=O)C1CCN(S(=O)(=O)c2cccc(-c3cn4cccnc4n3)c2)CC1 | -24.7 |
| C#CCN1C(=O)S/C(=C\c2ccc(-c3ccc(Cl)c(C(=O)O)c3)o2)C1=O | 19.7 |
| Cc1cc(C)nc(SCCN2CCOCC2)n1.Cl | 15.5 |
| COCc1cc(OC(=O)N(C)C)nc(-c2ccccc2)n1 | 9.91 |
| Cc1cccc(NC(=O)COc2ccc(/C=C\c3[nH]c(=O)[nH]c(=O)c3[N+](=O)[O-])cc2)c1 | -3.03 |
| NC(=O)NNC(=S)Nc1cccc2ccccc12 | 24.9 |
| CCCCc1ccc(NC(=S)NCc2cccc(OC)c2)cc1 | 8.67 |
| O=c1c(Cl)c(NCCO)cnn1-c1cccc(Cl)c1 | 3.96 |
| COc1ccc([N+](=O)[O-])cc1-n1cccc1 | -7.21 |
| C[n+]1c(-c2ccccc2)c2cc(N)ccc2c2ccc(N)cc21.[Br-] | 15.4 |
| O=C(O)c1ccc(Cl)c(S(=O)(=O)Nc2ccccc2C(=O)Nc2ccc(Cl)cc2)c1 | 16.9 |
| Cc1ccc(C)c(S(=O)(=O)N(C)C2CCS(=O)(=O)C2)c1 (centres unmarked) | -3.44 |
| COc1cc(NC(=O)CCc2c(C)nc3nc(C)nn3c2C)cc(OC)c1 | -9.8 |
| COc1ccc(OC)c(NS(=O)(=O)c2c(C(=O)N3CCCCCC3)c(C)n(C)c2C)c1 | 3.61 |
| CCC(c1nnnn1C(C)(C)CC)N1CCN(c2ccccc2F)CC1 (centres unmarked) | 30.6 |

| Compound | hERG current change (%, negative = inhibition) at 10uM [%] |
| --- | --- |
| NS(=O)(=O)c1ccc(SCc2ccccc2)nc1 | -0.995 |
| CCN1CCN(c2ccc(NC(=O)c3ccc(F)cc3)cc2Cl)CC1 | -75.6 |
| CCCC(C)c1nc(C(N)=O)c2[nH]c(=O)n(-c3ccc(OC)c(OC)c3)c2n1 (centres unmarked) | 12.6 |
| CCOC(=O)c1c(-c2ccc(OC)cc2)oc2cc(Br)c(O)cc12 | 10.4 |
| CC(=O)N1c2ccc(S(=O)(=O)N3CCC(C(=O)NC4CCCCC4C)CC3)cc2CC1C (centres unmarked) | 12 |
| COC(=O)/C=C/C(=O)Nc1cccc(C(F)(F)F)c1 | 10.6 |
| O=C(c1cccc(S(=O)(=O)N2CCOCC2)c1)N1CCCC(C(F)(F)F)C1 (centres unmarked) | 2.76 |
| C=CCOc1cccc(C2C(C(=O)c3ccco3)=C(O)C(=O)N2Cc2ccncc2)c1 (centres unmarked) | 24 |
| CC(=O)Nc1cccc(Oc2cc(C#N)c(C#N)cc2N2CCCCCC2)c1 | 1.08 |
| CS(=O)(=O)c1ccc2nc(NC(=O)CN3CCOCC3)sc2c1 | 24.1 |
| O=C(NCCO)C(=O)NCC1OCCCN1S(=O)(=O)c1ccc2c(c1)OCCO2 (centres unmarked) | -27.8 |
| Cc1ccc(NC(=O)CCNS(=O)(=O)c2ccc3c(c2)CCC(=O)N3)cc1F | 18.1 |
| COc1ccc(NC(=O)c2ccco2)cc1NC(=O)COc1ccccc1 | 1.24 |
| CCn1c(Cc2ccccc2)nnc1SCC(=O)Nc1ccccc1 | -12.8 |
| O=C(NCCc1ccccc1)/C(=C\c1ccc([N+](=O)[O-])cc1)NC(=O)c1ccco1 | -80.7 |
| COc1ccccc1-c1nnc(N(C)C(=O)C2CCCO2)s1 (centres unmarked) | -14 |
| N#C/C(=C/c1ccc(CNS(=O)(=O)c2ccccc2)o1)C(=O)NCc1ccccc1 | -20.8 |
| Cc1cccc(NCCC(=O)c2ccc([N+](=O)[O-])cc2)c1C | 7.68 |
| CCOC(=O)c1c(NC(=O)c2cccs2)sc(C(=O)N(C)C)c1C | -10.9 |
| CCC(=O)Nc1ccc(NC(=O)c2cccc3c(Br)cccc23)cc1 | 3.96 |
| O=C(CSc1nc2ccc(Nc3nc(N4CCOCC4)nc(N4CCOCC4)n3)cc2s1)Nc1ccccc1F | 15.4 |
| Cc1noc2ncnc(Oc3ccccc3Cl)c12 | 6.08 |
| COc1ccc2c(c1)c1ncn(CCN3CCCC3)c(=O)c1n2C | -42.5 |

| Compound | hERG current change (%, negative = inhibition) at 10uM [%] |
| --- | --- |
| O=C1c2ccccc2-c2nnc(-c3ccc(O)cc3)cc21 | 12.6 |
| NC(=O)c1ccsc1NC(=O)COC(=O)Cc1ccccc1 | -28.6 |
| CCc1c(O)nc(SCC(=O)Nc2ccc(Br)cc2)n(-c2ccc(C)cc2)c1=O | 11.2 |
| O=C(N/N=C/c1ccco1)C1CC1c1ccccc1 (centres unmarked) | -4.18 |
| CCOc1cc(C(c2c(C)[nH][nH]c2=O)c2c(C)[nH][nH]c2=O)ccc1OS(=O)(=O)c1ccccc1 | -4.25 |
| O=C(CCCNS(=O)(=O)c1cccc2nsnc12)NC1CCCCC1 | 2.47 |
| CC(=O)Nc1c2c(nn1-c1ccccc1C)CSC2 | 17.4 |
| Clc1ccc(N=C2SCC3CCCCN23)cc1 (centres unmarked) | -18.3 |
| CCCCC(O)(CCCC)C(=O)N/N=C(\C)c1ccc(Cl)cc1 | -66.9 |
| O/N=C/c1ccc(-c2cc(Cl)ccc2Cl)o1 | -3.51 |
| CCCCn1c(N)c(N(CC)C(=O)c2cc(CC)c(C)s2)c(=O)[nH]c1=O | -15.6 |
| O=C(N/N=C/c1ccccc1)c1ccc(OCc2ccccc2)cc1 | 16.7 |
| O=C(NCCNC(=O)c1ccc(Cl)cc1Cl)c1ccco1 | 3.04 |
| Cc1ccc(C(=O)Nc2onc(C)c2C#N)cc1 | 11.6 |
| Cc1cnc(NC2=NCCC2)s1 | 5.05 |
| Cc1ccc(O)c(NC(=O)c2ccc3c(c2)C(=O)N(Cc2ccco2)C3=O)c1 | 3.81 |
| Cc1ccc(O)c(N)c1 | 10.2 |
| O=C(Cn1ncc2c(=O)oc3ccccc3c21)NCC1COc2ccccc2O1 (centres unmarked) | -5.89 |
| O=C(NCc1ccccc1)c1ccccc1NC(=O)C1CCCCC1 | -3.3 |
| CCN1C(=O)[C@H]2[C@@H](c3ccc(-c4ccccc4)cc3)N[C@@](Cc3ccccc3)(C(=O)OC)[C@H]2C1=O.O=C(O)C(F)(F)F | -6.56 |
